From the supplement of paper PMC11417369
This is one part of the list.

system: PfSIP2 AP2 domain 1 (GST-tagged); experiment: gcPBM binding intensity (ln(normalized median fluorescence intensity)); higher = stronger DNA binding
Method in brief: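 After 1 h on an Agilent 4 × 180k array of primer-extended double-stranded 36-bp intergenic genomic probes and negative controls, bound GST-tagged P. falciparum DNA-binding domains were detected with Alexa488 anti-GST antibody and scanned at 488 nm. The domains had been expressed in E. coli, and binding took place in 1× PBS with 1% milk, 0.2 mg/ml BSA, 0.5% salmon testes DNA and 0.03% Triton X-100. Binding intensity is the highest Masliner-normalised natural-log median intensity across replicate spots of either probe orientation.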

Compared with “TCATTGAAAATTGTTGCACACATAATAATTAAATAT [CACACA_site8554]”, “CATAAATCAGCCATAACACACATACATATATACATA [CACACA_site8025]” is lower in “gcPBM binding intensity (ln)” value: 7.36 for the first, 6.93 for the second.

Going from “TCTTGTTTATCAACAGCACACACAACAACAACAACA [CACACA_site8046]” to “TATATATATACAGTTGCATGTTGTGTTTAAAATTTT [TGCATGCA_site816]”, the “gcPBM binding intensity (ln)” value rises from 7.56 to 8.47.

First: TGTTAAAAAATGGATGCACACATTAAATAAAAAGTA [CACACA_site1660]
Second: TAAAGGTAGATATATTGTACATACACACCTATATAA [XGTACX_site6865]
The “gcPBM binding intensity (ln)” value of the first is higher: 8.9 for the first, 6.8 for the second.

Compared with “TATATATATATATAATGTACTTATATTTTTTTGAGG [XGTACX_site2638]”, “ATATGTATAAGTATGTATATTTATTTATACTTATGT [GTGCAC_negctrl_site221]” is lower in “gcPBM binding intensity (ln)” value: 9.46 for the first, 7.07 for the second.

Compared with “TTAATTAAAACGAATACACACATAAATATGTAAAAG [CACACA_site6707]”, “AAAAAAAAAAAAAAAAGTACATATATATATTTATAT [XGTACX_site5893]” is higher in “gcPBM binding intensity (ln)” value: 7.04 for the first, 7.46 for the second.

Compared with “TTCTATTCACATTTTACACACGTCCATCGCATTTTA [CACACA_site3453]”, “TTTTAAATTTAATTTACACACTTTTCATAGCATTGA [CACACA_site3794]” is lower in “gcPBM binding intensity (ln)” value: 7.28 for the first, 6.74 for the second.

Going from “ATTGTGCTCATCAGCACACACAACATCATGTAATAA [CACACA_site1863]” to “TTATATTTATAAAATTGTATACCCCTTCTAACTTTC [CACACA_negctrl_site250]”, the “gcPBM binding intensity (ln)” value falls from 7.2 to 6.96.

First: TATATATATGGTTTAACACACGAGATAAAAGTATAT [CACACA_site2867]
Second: TATATGGTATGTATTACACACATATCACATATAGAT [CACACA_site7426]
The “gcPBM binding intensity (ln)” value of the first is higher: 7.23 for the first, 6.89 for the second.

Compared with “ACATTTAATGTTATATGTACATAATATTATAAGTAT [XGTACX_site1393]”, “CATATGGCAATAATTACATGCAAAAAAAAAAAAAAA [TGCATGCA_site578]” is lower in “gcPBM binding intensity (ln)” value: 7.19 for the first, 6.95 for the second.

First: AGCCATATCTTTTTTGCACACACTACAATAAAACAA [CACACA_site1650]
Second: AATGTAAAAGTAAACACACACATATATTTATACATA [CACACA_site7218]
The “gcPBM binding intensity (ln)” value of the first is higher: 7.65 for the first, 6.81 for the second.

Compared with “ACAGACGTTCAAAGGTGTACGCAAAATGAATAATAT [XGTACX_site7565]”, “GTAAATCGACACATACGTACATACATTTATATATAT [XGTACX_site3143]” is higher in “gcPBM binding intensity (ln)” value: 7.14 for the first, 7.57 for the second.

First: AAAAAAAAGAAAAACACACACATATATATATATAAT [CACACA_site4707]
Second: TTCTTATTTAATGTATCACACACGAGAATAAAAAAT [CACACA_site8992]
The “gcPBM binding intensity (ln)” value of the first is lower: 6.97 for the first, 7.23 for the second.

Compared with “AAAAAAAAAAACGACAGTACAATTATAATTTATATT [XGTACX_site2365]”, “AGAGTTAAACGATATATATAAATATATATATATATA [GTGCAC_negctrl_site316]” is higher in “gcPBM binding intensity (ln)” value: 6.95 for the first, 9.18 for the second.

Compared with “ATGTCTTAAAAATTAAAACACACGTTCACTTTCATA [CACACA_site3385]”, “AGATCATAATATTATACACACATTAGATATAGGTAA [CACACA_site6809]” is higher in “gcPBM binding intensity (ln)” value: 6.9 for the first, 7 for the second.

Compared with “AAATGTAATTTGTCTTTTATTTATATTTGACATGAT [TGCATGCA_negctrl_site520]”, “ATATTAATGATATATACACACATAAGTATTGTATAT [CACACA_site7844]” is lower in “gcPBM binding intensity (ln)” value: 6.93 for the first, 6.91 for the second.

Compared with “TTGATGGGAAAAAACTTTTTTTTCTTTTTTTCTTTC [CACACA_negctrl_site328]”, “AAAAATTATAAAAAACAAATATTAAATAATTATTAA [GTGCAC_negctrl_site125]” is higher in “gcPBM binding intensity (ln)” value: 6.45 for the first, 6.67 for the second.

First: TTTTTTTTTTTTTTTTTTTTTTTGCTCAGTGTGGTA [CACACA_negctrl_site29]
Second: TATCACCCACCATGAAGTACATATTACCATTTGATG [XGTACX_site845]
The “gcPBM binding intensity (ln)” value of the first is higher: 6.99 for the first, 6.83 for the second.

Compared with “ATAAATAAATAAAAGCGTACATATATATAAAATATA [XGTACX_site8107]”, “AAAAGGAAGATATATACACACATACAAATATTTATA [CACACA_site7093]” is lower in “gcPBM binding intensity (ln)” value: 6.98 for the first, 6.84 for the second.

Going from “TTATACTAAATGAACACACACACATATATATATATA [CACACA_site99]” to “AATTAAATGTTTCTAAGATATACGACCAATGTATTT [CACACA_negctrl_site1694]”, the “gcPBM binding intensity (ln)” value falls from 9.48 to 6.78.

Going from “AATTAATGGGTACATACACACATATATACATACATA [CACACA_site742]” to “TGTATTATCTCTTATGAACACACATTTTTATTTTCA [CACACA_site9107]”, the “gcPBM binding intensity (ln)” value falls from 7.18 to 7.09.

Compared with ATGTTAATTAATGAGGTGCATTGAATATTTCAATAA, “CATCAATGCTAATTATGTACTTACATAAATAACCCT [XGTACX_site968]” is lower in “gcPBM binding intensity (ln)” value: 10.6 for the first, 7.05 for the second.

First: ATACCTAAAAAATATACACACATATATATAAATATA [CACACA_site2580]
Second: TGGTGAAAAATATAAATATAAATAAATATATATATA [CACACA_negctrl_site1725]
The “gcPBM binding intensity (ln)” value of the first is lower: 7.12 for the first, 8.73 for the second.

Compared with “AGAAGAAAACAAAACACACACATATATCTTAATATA [CACACA_site2231]”, “AAAAAAAAAAACTTTGCATGTAATAATAAAAAAAAA [TGCATGCA_site81]” is lower in “gcPBM binding intensity (ln)” value: 6.82 for the first, 6.8 for the second.

First: ATGATCTGTTTGTTTGTGCACATATATATATATTAA
Second: TATATATTACATAAAACACACAAAAAAAAAATTAAA [CACACA_site3882]
The “gcPBM binding intensity (ln)” value of the first is higher: 9.2 for the first, 6.94 for the second.

Compared with “TTTATATTTTTTTTTGCACACTTTAAAAAAATATAT [CACACA_site1146]”, “AAATAAATTGAAGATACATGCATATTTTTTTTTTAT [TGCATGCA_site686]” is lower in “gcPBM binding intensity (ln)” value: 7.4 for the first, 6.84 for the second.

Going from “ATGTAGAGTAATAGTTGTACAAGGTGTATATCTCAT [XGTACX_site6370]” to “AAACTATACCAAAACACACATACAAAATATAAAAAA [CACACA_site2707]”, the “gcPBM binding intensity (ln)” value rises from 6.96 to 6.98.

First: ATTTTCAAATTATCAGATGAATCTTTTTAAGATCTT [XGTACX_negctrl_site598]
Second: CTCATATATAACACATGTACACAGATTTTGCAAATG [XGTACX_site6879]
The “gcPBM binding intensity (ln)” value of the first is lower: 6.55 for the first, 7.51 for the second.

Compared with “GTCTGCATATGGATACGTACACATATATATTAATGT [XGTACX_site2260]”, “TTTTTTTTTTTTTTTTTACACACTGCATACAAGAAA [CACACA_site3026]” is lower in “gcPBM binding intensity (ln)” value: 7.47 for the first, 7.08 for the second.
